# From PubChem BioAssay AID686970 (National Center for Advancing Translational Sciences (NCATS), 2013)
# Hit rate of the full screen: of about 360,000 compounds, about 6,000 (1.7%) were called active. Inconclusive means that the source gave no clear call. Such entries were picked first, then a sample of the others. Calls follow the shape of the dose curve; as a rule, active = well fitted cell-killing curve with a large enough effect; inconclusive = small, poorly fitted or top-dose-only effect, or effect the other way; inactive = flat fitted curve, though single readings scatter. No potency is given beside an inconclusive call; the fits are too rough.
# Test: qHTS for induction of synthetic lethality in tumor cells producing 2HG: qHTS for the HT-1080-NT fibrosarcoma cell line;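 also: NT is the 2HG producing partner of a matched IDH1 knockdown line; nearly all actives have a fitted effect of over 55% in size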;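 as to activity, negative = less viability: 0% = DMSO-treated cells and -100% = media-only wells without cells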
# Conditions: HT-1080-NT fibrosarcoma viability, CellTiter-Glo ATP luminescence, 48 h; activity, negative = less viability: at 46.1 µM (top of the series) unless noted
# Outline: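 750 cells/well, RPMI + 5% FBS; 2 h settle, compound pin-transfer, 48 h at 37 degrees C. CellTiter-Glo 10 min RT, luminescence. Normalized to DMSO and media-only wells.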
# Potency is read from the fitted curve at half-maximal effect; tags tell the direction and shape of the fitted curve.
SMILES,"activity, negative = less viability",Potency
CNC(=O)c1nn(-c2ccccc2)ccc1=O,inactive: 11.6%,–
O=C(NC(=S)Nc1ccc(F)c([N+](=O)[O-])c1)c1ccccc1F,inactive: -8.27%,–
c1ccc2c(-c3c[nH]c4ccccc34)c3ccccc3nc2c1,–,"inconclusive [cytotoxic, single point]"
NC(=O)c1cccc(Nc2nc(C(N)Cc3ccc(C(F)(F)F)cc3)cs2)n1 (centres undefined),–,active: 7.31 µM
COCCNC(=O)C1(C)CCN(C(=O)COc2ccc(Cl)cc2Cl)C1 (centres undefined),inactive: 0.696%,–
O=C(Nc1ccc(F)cc1)C1CCN(c2ncnc3c2nc2n3CCCCC2)CC1,inactive: -0.0219%,–
CC1=NN(c2ccccc2)C(=O)/C1=C/C=C/c1ccc(N(C)C)cc1,inactive: -7.51%,–
O=C(N/N=C/c1cccs1)c1cc(-c2cccc3ccccc23)n[nH]1,–,"inconclusive [cytotoxic, single point]"
CCC1Nc2ncnc(N3CCc4ccccc4C3)c2N(Cc2ccc(Br)cc2)C1=O (centres undefined),–,"inconclusive [cytotoxic, partial curve, poor fit]"
CCOC(=O)c1c(N2C(=O)Nc3cc(Cl)c(Cl)cc3N2O)sc2c1CCCCC2,–,"inconclusive [cytotoxic, partial curve]"
CCCn1c(NC(=O)c2ccc(Cl)c(S(=O)(=O)N3CCCC3)c2)nc2ccccc21,–,"inconclusive [cytotoxic, single point]"
CC(NC(=S)NC1CCC(C(C)(C)C)CC1)c1ccccc1 (centres undefined),–,"inconclusive [cytotoxic, single point]"
COc1cc(C(=O)NC2CCN(Cc3ccccc3)CC2)cc(Cl)c1OC(C)C,–,"inconclusive [cytotoxic, partial curve]"
CCOc1ccc(S(=O)(=O)n2cnc3cc(C)c(C)cc32)cc1,–,"inconclusive [cytotoxic, partial curve, poor fit]"
Nc1nonc1-n1nnc(C(=O)N/N=C/c2ccncc2)c1-c1cccs1,inactive: -1.27%,–
Cc1ccc(OCc2nnc(SCc3ccc(C#N)cc3)n2-c2ccc(C)cc2)cc1,–,"inconclusive [cytotoxic, single point]"
CCC(C)[C@H](NC(=O)N1CCCC1)C(=O)O (some centres undefined),inactive: 22.9%,–
O=C(Nc1ccc(SC(F)F)cc1)c1ccc2c(=O)n3c(nc2c1)CCC3,–,active: 3.26 µM
O=C(Nc1cccc(F)c1)Nc1c[nH]c(=O)[nH]c1=O,–,"inconclusive [rising, single point]"
O=C(Nc1nc2cc3c(cc2s1)OCO3)c1ccc(N2C(=O)CCC2=O)cc1,inactive: -0.571%,–
CCCc1ccc(OCc2ccc(C(=O)N3CCN(c4ccccn4)CC3)o2)c(OC)c1,–,"inconclusive [cytotoxic, single point]"
O=C(NN1C(=O)C2C3C=CC([C@H]4CC34)[C@@H]2C1=O)c1ccc(Br)cc1 (some centres undefined),inactive: -1.27%,–

SMILES,"activity, negative = less viability",Potency
COc1cccc(C2CC(=O)Nc3cc(C)c(C)cc32)c1 (centres undefined),–,"inconclusive [cytotoxic, single point]"
CC(C)(C)c1cc[n+](C2=C([O-])c3ccccc3C(=O)/C2=N\S(=O)(=O)c2ccccc2)cc1,–,"inconclusive [cytotoxic, partial curve]"
CC(c1ccc(O)cc1)(c1ccc(O)cc1)c1ccc(CCBr)cc1,–,"inconclusive [cytotoxic, single point]"
Nc1nc(Cl)cc(N2CCC(c3cc(-c4ccc(Cl)cc4Cl)n[nH]3)CC2)n1,–,"inconclusive [cytotoxic, single point]"
N#Cc1ccccc1/C=N/Nc1nc(-c2ccccc2)c2cc(Cl)ccc2n1,inactive: 11.9%,–
CC(C)C(C)NC(=O)COc1ccc(-c2ccccc2)cc1 (centres undefined),inactive: 0.701%,–
NC(COCc1ccccc1)c1csc(Nc2cc(Oc3ccccc3)ncn2)n1 (centres undefined),–,active: 23.1 µM
COc1ccc(OC)c(NC(=S)N2CCCC2)c1,–,"inconclusive [rising, single point]"
CCCCNS(=O)(=O)c1ccc2nc(SCC(=O)Nc3sccc3C#N)[nH]c2c1,–,"inconclusive [cytotoxic, partial curve]"
CCN(CC)c1ccc(/C=N/NC(=O)Cc2cccs2)c(O)c1,–,"inconclusive [cytotoxic, full curve]"
Cc1cccc(OCC(=O)NNc2c3ccccc3nc3ccccc23)c1,inactive: -3.26%,–
CN(C(=O)Cc1c[nH]c2ccccc12)C(C(=O)Nc1ccc2c(c1)OCO2)c1ccccc1 (centres undefined),–,"inconclusive [cytotoxic, partial curve, poor fit]"
Oc1c(CN2CCN(c3ccccc3)CC2)cc(Br)c2cccnc12,–,"inconclusive [cytotoxic, full curve]"
COC(=O)c1ccc(NC(=O)CSc2nn3c(=O)c(C)nnc3s2)cc1,inactive: -3.62%,–
COc1ccc(/C=N/NC(=O)c2sc3nc(C)cc(C)c3c2N)cc1,–,"inconclusive [rising, partial curve, poor fit]"
CCCNC(=O)c1cc2c(c(-c3cccc(-c4ccc(F)cc4)c3)n1)[C@@H](CCO)N(S(=O)C(C)(C)C)C2 (some centres undefined),–,"inconclusive [cytotoxic, single point]"
CCOC(=O)C1(CCOc2ccccc2)CCN(Cc2cccc(OC)c2O)CC1,–,"inconclusive [cytotoxic, single point]"
CC(C)(C)c1ccc(SCCc2ccncc2)cc1,–,"inconclusive [cytotoxic, single point]"
COc1ccc(C(=O)CCN2CCN(c3ccccc3F)CC2)cc1,–,"inconclusive [cytotoxic, single point]"
COc1ccccc1CNC(=O)C1(C)CCN1Cc1ccc2ccccc2c1 (centres undefined),–,"inconclusive [cytotoxic, single point]"
CCOC(=O)c1c(NC(=O)CSc2nnnn2-c2ccccc2OCC)sc2c1CC(C)(C)NC2(C)C,–,"inconclusive [cytotoxic, single point]"
CS(=O)(=O)N1CCCC(C(=O)Nc2ccccc2C(F)(F)F)C1 (centres undefined),–,"inconclusive [rising, partial curve]"
